Experimental data published in PubChem BioAssay AID485294 (National Center for Advancing Translational Sciences (NCATS), 2010).
The campaign covered roughly 370,000 compounds. About 150 (0.041%) were called active. The shares of active, inactive and inconclusive entries below differ from those in the screen. Calls come from the whole dose curve; as a rule, active = well fitted inhibition curve with a large enough effect; inconclusive = small, poorly fitted or top-dose-only effect; inactive = flat fitted curve, though single readings scatter. No potency is given beside an inconclusive call; the fits are too rough.

target: Beta-lactamase (Escherichia coli (strain K12)) (UniProt P00811); experiment: qHTS Inhibitors of AmpC Beta-Lactamase (assay with detergent); details: AmpC hydrolysis of nitrocefin, absorbance 480 nm, 0.01% Triton; activity change, negative = inhibition: at 114 µM (top of the series); note: nearly all actives have a fitted effect of over 25% in size;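 for activity change, negative = inhibition: 0% = no-compound wells and -100% = no-enzyme wells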
Chain of UniProt P00811 (P00811 whole entry, looked up): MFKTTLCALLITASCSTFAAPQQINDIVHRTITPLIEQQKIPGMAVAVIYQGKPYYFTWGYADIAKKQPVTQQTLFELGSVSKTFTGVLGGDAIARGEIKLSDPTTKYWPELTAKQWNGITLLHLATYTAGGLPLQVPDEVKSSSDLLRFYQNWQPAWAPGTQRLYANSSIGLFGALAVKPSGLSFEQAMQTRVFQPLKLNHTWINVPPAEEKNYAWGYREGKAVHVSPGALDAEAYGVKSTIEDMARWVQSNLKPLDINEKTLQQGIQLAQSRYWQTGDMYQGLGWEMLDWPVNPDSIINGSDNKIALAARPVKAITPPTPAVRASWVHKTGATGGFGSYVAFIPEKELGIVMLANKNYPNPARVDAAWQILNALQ
Summary of the method: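 AmpC (5.3 nM in the dispensed reagent) in 20 mM phosphate pH 7.0 with 0.01% (detergent screen) or 0.0001% Triton X-100 was preincubated with compounds for 15 min at room temperature. Nitrocefin was then added from an 800 uM solution, and hydrolysis was followed at 480 nm.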
Potency is the fitted concentration of half-maximal effect; tags give direction and shape of the fitted curve.

Row | SMILES | Potency | activity change, negative = inhibition
1 | Cc1occc1C(=O)Nc1nnc(C2CCCCC2)s1 | inconclusive [inhibitor, partial curve, poor fit] | –
2 | Cc1ccc2c(CSc3nc4nc(C)cc(C)n4n3)cc(=O)oc2c1 | – | inactive: 10.4%
3 | CC(=O)c1ccccc1NC(=O)COC(=O)CCCN1C(=O)c2cccc3cccc(c23)C1=O | inconclusive [inhibitor, partial curve, poor fit] | –
4 | COc1cccc(COC(=O)C2CCN(S(=O)(=O)c3ccc(C)cc3)CC2)c1OC | inconclusive [inhibitor, full curve, poor fit] | –
5 | O=C(CSc1nnc2ccc(-c3ccccn3)nn12)Nc1ccccc1F | inconclusive [inhibitor, partial curve] | –
6 | CN(C)CCNC(=O)C(=O)NCC(c1cccnc1)N1CCN(c2ccccc2)CC1 (stereo not drawn) | – | inactive: 16.6%
7 | CCOc1ccc2[nH]c(SCC(=O)OC)c([N+](=O)[O-])c2c1 | – | inactive: 4.36%
8 | CCCCNS(=O)(=O)c1ccc(OC)cc1 | inconclusive [inhibitor, full curve] | –
9 | O=C(Nc1ccc(F)cc1F)NC1CCN(Cc2c(F)cccc2Cl)CC1 | – | inactive: 2.1%
10 | CCCn1c(=O)c2ccccc2n2c(=S)[nH]nc12 | – | inactive: 2.17%
11 | CC(C)(C)c1ccc(C(=O)NNC(=O)c2ccc(Cl)cc2)cc1 | inconclusive [inhibitor, full curve, poor fit] | –
12 | Cc1ccccc1Nc1c(-c2ccncc2)nc2ccc(Br)cn12 | inconclusive [inhibitor, single point] | –
13 | CCOC(=O)C(C)(C)Oc1ccc(Cl)cc1 | inconclusive [inhibitor, full curve, poor fit] | –
14 | CCCN(C(=O)COC(=O)c1cc(CC)c(C)s1)c1c(N)n(Cc2ccccc2)c(=O)[nH]c1=O | inconclusive [inhibitor, full curve, poor fit] | –
15 | CCc1nnc(NC(=O)[C@@H]2CCCN2S(=O)(=O)c2ccc3c(c2)OCCO3)s1 | inconclusive [inhibitor, full curve, poor fit] | –
16 | O=C(Nc1ccccc1N1CCN(C(=O)c2ccc(Cl)cc2)CC1)c1cc(Br)ccc1Cl | inconclusive [inhibitor, partial curve] | –
17 | O=C(CCCN1CCC(c2ccccc2)C1)c1ccc2c(c1)OCCO2 (stereo not drawn) | inconclusive [inhibitor, full curve] | –
18 | Cc1ccn2c(=O)c(NC(=O)c3cccc4ccccc34)c(C)nc2c1 | inconclusive [inhibitor, full curve, poor fit] | –
19 | CCC(=O)Nc1cc(C(=O)O)ccc1Sc1ccccc1 | inconclusive [inhibitor, single point] | –
20 | Cc1ccc(S(=O)(=O)N2[C@@H](c3ccccc3F)C(C(=O)O)=CC[C@H]2c2cccc(C)c2)cc1 | inconclusive [inhibitor, single point] | –
21 | O=S(=O)(NCCc1ccccc1)c1ccc(Br)cc1 | inconclusive [inhibitor, single point] | –
22 | CCCc1n(CC(O)COCC2CC=CCC2)c2ccccc2[n+]1C (stereo not drawn) | inconclusive [inhibitor, full curve, poor fit] | –

Row | SMILES | Potency | activity change, negative = inhibition
23 | Cn1ccnc1C1CCCCN1C(=O)c1cc(COc2ccc(F)cc2Cl)on1 (stereo not drawn) | – | inactive: -3.04%
24 | CC(/C=C/C=C/c1ccccc1)=N/NC(=O)C(O)c1ccccc1 (stereo not drawn) | – | inactive: -0.416%
25 | Cc1nn(Cc2ccc(F)cc2)c(C)c1NC(=O)C1c2ccccc2Oc2ccccc21 | inconclusive [inhibitor, full curve, poor fit] | –
26 | CC(OC(=O)c1ccc(NS(=O)(=O)c2ccc3[nH]c(=O)[nH]c3c2)cc1)C(N)=O (stereo not drawn) | inconclusive [inhibitor, partial curve] | –
27 | c1cnc2c(c1)ccc1cccnc12 | inconclusive [inhibitor, full curve, poor fit] | –
28 | Cc1c(C(=O)N2CCN(c3ccc(F)cc3)CC2)sc2ncnc(N3CCN(c4ccccn4)CC3)c12 | – | inactive: -1.87%
29 | CC(=O)Nc1c(-c2ccccc2)nc2ncccn12 | inconclusive [inhibitor, full curve, poor fit] | –
30 | CCOc1ccc(S(=O)(=O)NCc2ccncc2)cc1NC(=O)c1ccccc1 | inconclusive [inhibitor, full curve] | –
31 | CCOC(=O)c1cc(NC(=O)Nc2nc3ccccc3s2)c(C)nc1C | inconclusive [inhibitor, full curve, poor fit] | –
32 | O=C1NN(c2ccccc2)C(=O)/C1=C/c1coc2ccccc2c1=O | – | inactive: -14.5%
33 | Cn1cc(C(=O)NC2CC2)c2ccccc21 | inconclusive [inhibitor, full curve, poor fit] | –
34 | CCOC(=O)c1ccc(NC(=O)CCC(=O)N2CCSc3ccccc32)cc1 | – | inactive: -2.27%
35 | O=C1NC2(Nc3ccccc31)C(=O)Nc1ccccc12 (stereo not drawn) | inconclusive [inhibitor, partial curve, poor fit] | –
36 | COCCNC(=O)c1c(N)sc2c1CCCC2 | – | inactive: 2.57%
37 | COc1ccccc1CCC(=O)N1CCN(S(=O)(=O)c2cc(C(F)(F)F)ccc2Cl)CC1 | – | inactive: -21.9%
38 | Cc1[nH]c2ccc(C(=O)NCCCN(C)C3CCCCC3)cc2c1C | – | inactive: -19.4%
39 | C/C(=N\Nc1nc2ccccc2[nH]1)c1ccc(N2CCOCC2)cc1 | inconclusive [inhibitor, full curve, poor fit] | –
40 | CCCC(C)C(=O)Nc1cc([N+](=O)[O-])ccc1F (stereo not drawn) | inconclusive [inhibitor, partial curve, poor fit] | –
41 | CCOc1ccc(C(=O)N[C@H](C(=O)Nc2cccc(S(=O)(=O)N3CCOCC3)c2)C(C)C)cc1 | inconclusive [inhibitor, full curve, poor fit] | –
42 | CCOC(=O)C1CCN(c2nnc(N3CCCC3=O)s2)CC1 | – | inactive: 0.41%
43 | Cc1[nH]c2ccccc2c1C(=O)CSc1nc2ccccc2c(=O)n1CCCN1CCOCC1 | inconclusive [inhibitor, partial curve, poor fit] | –
